{"source": "PubChem BioAssay AID1468", "about": "(National Center for Advancing Translational Sciences (NCATS), 2008)", "note": "Hit rate of the full screen: of about 280,000 compounds, about 1,100 (0.39%) were called active. Inconclusive results, whose numbers are uncertain, are shown with a selection of clear calls. The call rests on the fitted dose curve; in most records, active means well fitted inhibition curve with a large enough effect; inconclusive means small, poorly fitted or top-dose-only effect, or effect the other way; inactive means flat fitted curve, though single readings scatter. Potencies beside an inconclusive call are fits to weak or partial responses and may not hold up. On the % scale 0 is the no-effect control and ±100 the full control effect; potency means the concentration at half of the fitted maximal effect; tags describe the fitted curve by direction and shape.", "data": [{"biological_target": "Microtubule-associated protein tau (Homo sapiens) (UniProt P10636)", "sequence (P10636 whole entry, looked up)": "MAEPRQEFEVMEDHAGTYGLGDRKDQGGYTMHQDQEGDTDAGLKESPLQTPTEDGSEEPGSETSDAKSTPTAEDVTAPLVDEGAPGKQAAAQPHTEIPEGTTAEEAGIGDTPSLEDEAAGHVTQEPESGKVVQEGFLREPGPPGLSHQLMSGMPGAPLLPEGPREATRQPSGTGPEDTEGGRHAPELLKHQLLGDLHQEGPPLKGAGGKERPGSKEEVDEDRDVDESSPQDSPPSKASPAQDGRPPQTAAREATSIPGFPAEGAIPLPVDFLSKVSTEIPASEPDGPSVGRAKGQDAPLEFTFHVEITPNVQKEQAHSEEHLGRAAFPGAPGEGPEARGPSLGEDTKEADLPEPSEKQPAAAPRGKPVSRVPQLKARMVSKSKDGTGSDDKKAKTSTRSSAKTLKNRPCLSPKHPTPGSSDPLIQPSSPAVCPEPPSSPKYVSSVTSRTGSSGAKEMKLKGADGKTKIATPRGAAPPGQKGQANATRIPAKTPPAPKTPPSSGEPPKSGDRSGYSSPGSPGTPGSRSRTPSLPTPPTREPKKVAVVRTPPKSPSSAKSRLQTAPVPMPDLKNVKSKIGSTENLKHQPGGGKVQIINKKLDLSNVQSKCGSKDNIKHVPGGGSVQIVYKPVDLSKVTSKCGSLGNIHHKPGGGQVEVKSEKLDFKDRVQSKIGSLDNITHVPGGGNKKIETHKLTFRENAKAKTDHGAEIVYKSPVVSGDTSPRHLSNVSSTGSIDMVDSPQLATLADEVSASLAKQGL", "assay": "qHTS for Inhibitors of Tau Fibril Formation, Fluorescence Polarization; further: nearly all actives have a fitted effect of over 55% in size", "conditions": "K18 P301L tau heparin fibrillization, Alexa594 FP, 6 h; series mostly up to 57.7 µM", "in_short": "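K18 P301L tau (15 uM unlabeled/0.24 uM Alexa 594-labeled, final) + compound + heparin 20 uM final; 100 mM NaOAc pH 7; 6 hr 37 C; ThT 30 uM final added, 1 hr RT; FP ex 555/em 632 nm.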", "values": [{"smiles": "CCOC(=O)C1=NN(C(=O)Cc2ccccc2)C(O)(C(C)(C)C)C1", "note": "(configuration not stated)", "Potency": "inconclusive: 1 µM [inhibitor, single point]"}, {"smiles": "O=[N+]([O-])c1ccccc1NCCNc1ncc(C(F)(F)F)cc1Cl", "Potency": "inconclusive: 10 µM [inhibitor, partial curve, poor fit]"}, {"smiles": "CCCCn1c(-c2nn(C)cc2Cl)n[nH]c1=S", "Potency": "inactive"}, {"smiles": "O=C(NCc1cccs1)c1ccc2c(=O)n3nc(Nc4ccccc4)sc3nc2c1", "Potency": "inconclusive: 20 µM [inhibitor, partial curve, poor fit]"}, {"smiles": "O=c1c2sc3ccccc3c2n(Cc2cccc(F)c2)c(=O)n1Cc1ccccc1", "Potency": "inconclusive: 20 µM [inhibitor, single point]"}, {"smiles": "C/C(=N\\NC(=O)c1ccc(Br)cc1)C1C(=O)c2ccccc2C1=O", "Potency": "inconclusive: 7.94 µM [activator, single point]"}, {"smiles": "CCN(CC)c1ccc(NS(=O)(=O)c2ccc3c(c2)oc(=O)n3C)c(C)c1", "Potency": "inactive"}, {"smiles": "Cc1c(Cl)cccc1NC(=O)CC1Oc2ccccc2NC1=O", "note": "(configuration not stated)", "Potency": "inactive"}, {"smiles": "CCCC(c1nnnn1C1CCCC1)N1CCN(C(=O)c2ccco2)CC1", "note": "(configuration not stated)", "Potency": "inconclusive: 1.12 µM [inhibitor, single point]"}, {"smiles": "COc1ccc(-c2cc(C(=O)Nc3c(C(=O)c4ccc(C)cc4)oc4ccccc34)no2)cc1", "Potency": "inconclusive: 20 µM [inhibitor, partial curve]"}, {"smiles": "O=C(Cn1c(=O)n(Cc2nc(-c3ccccc3)no2)c(=O)c2ccccc21)Nc1cccc(C(F)(F)F)c1", "Potency": "active: 10 µM"}, {"smiles": "CCOC(=O)c1ccc(N2C(=O)c3[nH]nc(-c4ccccc4)c3C2c2ccc(CC)cc2)cc1", "note": "(configuration not stated)", "Potency": "inconclusive: 35.5 µM [inhibitor, single point]"}, {"smiles": "CC[C@@]1(O)C(=O)COc2c1cc1n(c2=O)Cc2c-1nc1cccc(C(C)C)c1c2[Si](C)(C)C", "Potency": "inactive"}, {"smiles": "Cc1ccc(C)c2sc(NC(=O)c3ccc(S(=O)(=O)N4CCC(C)CC4)cc3)nc12", "Potency": "inconclusive: 28.2 µM [inhibitor, partial curve]"}, {"smiles": "CCOC(=O)c1ccc(N2C(=O)c3n[nH]c(-c4cccs4)c3C2c2ccc(OCC)cc2)cc1", "note": "(configuration not stated)", "Potency": "inconclusive: 22.4 µM [inhibitor, partial curve]"}, {"smiles": "Cn1cccc1/C=C(\\C#N)C(N)=S", "Potency": "inactive"}, {"smiles": "CCOC(=O)c1c(NC(=O)c2cc(C(C)C)on2)sc(C(C)=O)c1C", "Potency": "inactive"}, {"smiles": "COc1ccc(/C=C\\c2onc(C)c2S(=O)(=O)N2CCC(C(=O)Nc3ccc(F)cc3F)CC2)cc1", "Potency": "inconclusive: 25.1 µM [inhibitor, partial curve]"}, {"smiles": "O=C(NCc1ccccc1Cl)c1ccc2c(c1)NC(=O)C(CS(=O)(=O)Cc1ccc(F)cc1Cl)N2", "note": "(configuration not stated)", "Potency": "inconclusive: 12.6 µM [inhibitor, partial curve, poor fit]"}, {"smiles": "O=C(NCCc1ccc(Cl)cc1)c1cnc2sc(N3CCOCC3)nn2c1=O", "Potency": "inactive"}, {"smiles": "Cc1cc(OCCCCCn2ccnc2)cc(C)c1Cl", "Potency": "inconclusive: 44.7 µM [inhibitor, single point]"}, {"smiles": "COc1ccc(OC)c(NC(=O)CSc2ccc(-c3cccs3)nn2)c1", "Potency": "inconclusive: 8.91 µM [inhibitor, partial curve]"}, {"smiles": "CCn1c(C(=O)NCc2ccc(F)cc2)cc2oc3ccccc3c21", "Potency": "inconclusive: 11.2 µM [inhibitor, partial curve]"}, {"smiles": "Cc1cnc(CNc2ccnc(-c3ccc(C(=O)N(C)C)cc3)n2)cn1", "Potency": "inactive"}, {"smiles": "C=CCc1cc(C=O)cc(OC)c1OCc1ccc(C(=O)O)cc1", "Potency": "inactive"}, {"smiles": "COc1ccc2[nH]cc(CCNC(C)=O)c2c1", "Potency": "inactive"}, {"smiles": "CNC(=O)c1c(N)sc2c1CCCCC2", "Potency": "inconclusive: 17.8 µM [inhibitor, partial curve]"}, {"smiles": "O=C(Nc1cccc(Cl)c1)C1C2CCC3C(CCC21)C3(Cl)Cl", "note": "(configuration not stated)", "Potency": "inconclusive: 2.51 µM [inhibitor, partial curve, poor fit]"}, {"smiles": "Cc1[nH]c2ccccc2c1C(=O)/C=C\\c1ccccc1Cl", "Potency": "inconclusive: 25.1 µM [inhibitor, partial curve]"}, {"smiles": "COc1ccc(-c2cc(C(=O)N/N=C/c3ccc(OC)c(COCC(F)(F)C(F)F)c3)c3ccccc3n2)c(OC)c1", "Potency": "inconclusive: 14.1 µM [inhibitor, partial curve]"}, {"smiles": "CCCCCC(O)/C=C/C=C\\CCCCCCCC(=O)O", "note": "(configuration not stated)", "Potency": "inactive"}, {"smiles": "Cc1ccc(CCNS(=O)(=O)c2cc(-c3cc(C)no3)ccc2C)cc1", "Potency": "inactive"}, {"smiles": "O=Nc1c(-c2c(O)[nH]c3ccccc23)[nH]c2ccccc12", "Potency": "inconclusive: 28.2 µM [inhibitor, partial curve] [middle of 4 runs]"}, {"smiles": "COc1ccc(NC(=O)O/N=C2/CCCc3ccc(OC)cc32)cc1", "Potency": "inconclusive: 10 µM [inhibitor, single point]"}, {"smiles": "Cc1c(CCC(=O)NCCc2ccccc2)c(=O)oc2c(C)c(O)ccc12", "Potency": "inconclusive: 39.8 µM [inhibitor, single point]"}, {"smiles": "CCN(CC)CCn1c(SCC(=O)Nc2ccc(F)cc2)nc2c(sc3ccccc32)c1=O", "Potency": "inconclusive: 22.4 µM [inhibitor, partial curve, poor fit]"}, {"smiles": "Cc1ccc(SCCNC(=O)c2ccc(C)c(S(=O)(=O)Nc3cccc(C)c3)c2)cc1", "Potency": "inconclusive: 35.5 µM [inhibitor, single point]"}, {"smiles": "CCCN(C(=O)c1cc2c(=O)oc3ccccc3c2s1)c1ccc(CC)cc1", "Potency": "inconclusive: 22.4 µM [inhibitor, partial curve, poor fit]"}, {"smiles": "CCCCc1ccc(-c2csc(/C(C#N)=C/c3ccco3)n2)cc1", "Potency": "inconclusive: 44.7 µM [inhibitor, single point]"}, {"smiles": "O=C(Nc1ccc(F)cc1)OCCOc1ccc([N+](=O)[O-])cc1", "Potency": "inconclusive: 14.1 µM [inhibitor, partial curve, poor fit]"}, {"smiles": "CCOC(=O)c1c(C)[nH]c(C(=O)CN2C(=O)NC(C)(c3ccc(C)cc3)C2=O)c1C", "note": "(configuration not stated)", "Potency": "inconclusive: 25.1 µM [activator, single point]"}, {"smiles": "CCCOc1ccc(C(=O)Nc2ccc3oc(-c4ccncc4)nc3c2)cc1", "Potency": "inactive"}, {"smiles": "CCC(Sc1nnc2c(n1)[nH]c1ccccc12)C(=O)Nc1nnc(C(C)C)s1", "note": "(configuration not stated)", "Potency": "inconclusive: 28.2 µM [inhibitor, partial curve]"}, {"smiles": "O=C(Oc1ccc(N(C(=O)c2ccncc2)S(=O)(=O)c2ccc(Cl)cc2)cc1)c1ccncc1", "Potency": "inactive"}, {"smiles": "CCOC(=O)c1c(CSC(=N)N)n(-c2ccc(Br)cc2)c2cc(Br)c(OC(C)=O)cc12", "Potency": "inconclusive: 25.1 µM [inhibitor, partial curve]"}, {"smiles": "O=C1Nc2ccc(Cl)cc2C(=O)C1(F)c1ccccc1", "note": "(configuration not stated)", "Potency": "inconclusive: 22.4 µM [inhibitor, partial curve, poor fit]"}, {"smiles": "Cc1cc(C)n2c(SCc3c(C)noc3C)nnc2n1", "Potency": "inconclusive: 39.8 µM [inhibitor, single point]"}, {"smiles": "COc1ccc2[nH]c(=O)c(CN(Cc3cccs3)C(=S)Nc3cccc(C)c3)cc2c1", "Potency": "inconclusive: 39.8 µM [inhibitor, single point]"}, {"smiles": "Cc1ccc(NS(=O)(=O)c2ccc(Cl)c(C(=O)Nc3ccccc3-c3nc4ccccc4[nH]3)c2)cc1C", "Potency": "active: 14.1 µM"}, {"smiles": "CCc1ccccc1-n1c(C)nc2cc(C(=O)NCCc3ccc(Cl)cc3)ccc21", "Potency": "inactive"}, {"smiles": "O=C(Nc1ccc(CN2CCOCC2)cc1)c1ccc(N2CCCC2)c([N+](=O)[O-])c1", "Potency": "inactive"}, {"smiles": "Cc1occc1C(=O)N/N=C/C(Br)=C/c1ccccc1", "Potency": "inconclusive: 25.1 µM [inhibitor, single point]"}, {"smiles": "Fc1ccccc1N1CCN(c2nc(-c3cccs3)nc3ccccc23)CC1", "Potency": "inconclusive: 22.4 µM [inhibitor, single point]"}, {"smiles": "CC(C)N(Cc1ccccc1)S(=O)(=O)c1ccc(-c2cc(C(F)(F)F)on2)s1", "Potency": "inconclusive: 7.94 µM [inhibitor, full curve]"}, {"smiles": "O=C(/C=C/c1ccco1)Nc1nc(-c2ccccc2)cs1", "Potency": "inactive"}, {"smiles": "Cc1cc2cc(CNC(=O)c3ccc(S(=O)(=O)N4CCCC4)cc3)ccc2n1C", "Potency": "inconclusive: 44.7 µM [inhibitor, single point]"}, {"smiles": "Cc1cc(/C=N/Nc2nc(N)ncc2[N+](=O)[O-])c(C)n1-c1cccc(C(F)(F)F)c1", "Potency": "inactive"}, {"smiles": "COc1ccc(-c2n[nH]c(=S)n2/N=C/C=C/c2ccccc2OC)cc1", "Potency": "inconclusive: 20 µM [inhibitor, single point]"}, {"smiles": "COc1ccc(OC)c2sc(N3CCN(C(=O)CCS(=O)(=O)c4ccc(F)cc4)CC3)nc12", "Potency": "inactive"}, {"smiles": "Cc1ccccc1CC(=O)c1ccc(O)c(C)c1O", "Potency": "inconclusive: 35.5 µM [inhibitor, single point]"}, {"smiles": "CO[C@@H](CCOCc1ccccc1)C[C@H]1O[C@H](C(=O)OC(C)C)C=C[C@@H]1C", "Potency": "inactive"}, {"smiles": "COc1ccc(C(=O)Nc2ccc(Oc3ncnc4sc(-c5ccccc5)cc34)cc2)cc1OC", "Potency": "inconclusive: 0.891 µM [inhibitor, full curve, poor fit]"}, {"smiles": "Cc1ccc(C)c(NC(=O)/C(C#N)=C/c2cn(CC(=O)NCc3ccco3)c3ccccc23)c1", "Potency": "inconclusive: 4.47 µM [inhibitor, full curve, poor fit]"}, {"smiles": "CCCCNC(=S)N1CCn2cccc2C1c1ccccc1", "note": "(configuration not stated)", "Potency": "inactive"}, {"smiles": "Cc1ccc(C(=O)c2cn(CC(=O)NCc3ccccc3Cl)c3nc(C)ccc3c2=O)cc1", "Potency": "inactive"}, {"smiles": "CC(C)c1ccc(C2CC(=O)N3CN(Cc4ccco4)CSC3=C2C#N)cc1", "note": "(configuration not stated)", "Potency": "inconclusive: 17.8 µM [inhibitor, partial curve]"}, {"smiles": "COC/C=C/C1=CC2=CC(=O)C(C)(OC(=O)c3cnc4ccccc4n3)C(=O)C2=CN1CCN1CCOCC1", "note": "(configuration not stated)", "Potency": "inconclusive: 20 µM [inhibitor, single point]"}]}]}
